Results taken from patent US20240158497A1.
Values joined by “and” are separate entries in the source; they are usually repeats but may differ in a detail not shown here. Equal entries are not always repeated.

B1: bsAb21237D (bispecific antibody, V domains shown)
VH 1: EVQLVESGGGLVQPGGSLRLSCAASGFTFSNYGMTWVRQAPGKGLEWVSAITGGGGSTYYSNSVKGRFTISRDNSKNTVYLRMNSVRAEDTAVYYCAKYKWNFVDDWGQGTTVTVSS
VH 2: QVQLVESGGGLVKPGGSLRLSCAASGFTFSDYYMTWIRQTPGKGLDWVSYISSSGTNKYNADSVKGRFTISRDNAKNSLYLQMNSLRAEDTAVYYCVRDPPWGMDVWGQGTTVTVSS
VL: [letters of about 100 residues left out]
B2: bsAb21236D (bispecific antibody, V domains shown)
VH 1: QVQLQESGPGLVKPSQTLSLTCTVSGGSISSGGDYWSWIRQLPGKGLEWIGYIYYSGSAYYNPSLKSRGTISIDTSKNQFSLKLTSVTAADTAVYFCVKLRFLEWFLGGWFGPWGQGTLVTVSS
VH 2: QVQLVESGGGLVKPGGSLRLSCAASGFTFSDYYMTWIRQTPGKGLDWVSYISSSGTNKYNADSVKGRFTISRDNAKNSLYLQMNSLRAEDTAVYYCVRDPPWGMDVWGQGTTVTVSS
VL: [letters of about 100 residues left out]

Target: wild-type human GP130 on HEK293.STAT3.Luc.GP130 reporter cells (human), P40189
Sequence (P40189 23-918): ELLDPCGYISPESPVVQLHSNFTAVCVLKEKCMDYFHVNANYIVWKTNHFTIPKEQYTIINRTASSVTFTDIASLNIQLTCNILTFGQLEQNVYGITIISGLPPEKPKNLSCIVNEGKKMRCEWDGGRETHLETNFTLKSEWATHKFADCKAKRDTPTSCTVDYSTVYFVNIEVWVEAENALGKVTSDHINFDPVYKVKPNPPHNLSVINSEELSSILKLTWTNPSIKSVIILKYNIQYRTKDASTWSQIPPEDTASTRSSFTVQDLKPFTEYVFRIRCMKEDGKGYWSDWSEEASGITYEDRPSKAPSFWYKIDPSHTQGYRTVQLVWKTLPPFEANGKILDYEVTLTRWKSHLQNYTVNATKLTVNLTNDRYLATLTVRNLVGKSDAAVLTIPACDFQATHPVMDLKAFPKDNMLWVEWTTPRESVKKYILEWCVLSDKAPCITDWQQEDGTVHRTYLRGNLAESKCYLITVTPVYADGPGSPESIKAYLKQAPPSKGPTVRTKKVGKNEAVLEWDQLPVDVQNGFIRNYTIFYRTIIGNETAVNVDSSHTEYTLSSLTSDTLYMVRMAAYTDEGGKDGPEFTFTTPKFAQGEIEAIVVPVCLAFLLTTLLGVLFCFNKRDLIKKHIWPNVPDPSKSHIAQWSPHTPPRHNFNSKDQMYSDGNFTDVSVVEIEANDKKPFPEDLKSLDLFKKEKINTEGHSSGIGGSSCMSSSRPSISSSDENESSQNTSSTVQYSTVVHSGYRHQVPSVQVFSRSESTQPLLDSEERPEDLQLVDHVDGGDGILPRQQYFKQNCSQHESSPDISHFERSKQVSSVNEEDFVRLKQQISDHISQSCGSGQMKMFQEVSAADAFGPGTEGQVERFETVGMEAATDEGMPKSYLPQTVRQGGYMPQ
Assay: cell-based or functional assay

Binder | Assay Buffer, % activity [%] | EC50 (M), STAT3-luciferase activation of HEK293.STAT3.Luc.GP130.hLEPR (Y1141F) cells, 10 nM leptin [M] | RLU, Assay Buffer (no soluble protein)
B1 | 100 | 2.46e-09 | 44900 RLU and 38100 RLU
B2 | 100 | – | 48900 RLU and 42200 RLU
